# Assay results from the supplement of paper PMC11369174, “Proteome-scale characterisation of motif-based interactome rewiring by disease mutations” (Molecular Systems Biology, 2024).
# The list shows a part of the results. Values come from read counts of a selection and are noisy.
# T1: AP1G2_GAE__O75843_665_785
# T1 chain: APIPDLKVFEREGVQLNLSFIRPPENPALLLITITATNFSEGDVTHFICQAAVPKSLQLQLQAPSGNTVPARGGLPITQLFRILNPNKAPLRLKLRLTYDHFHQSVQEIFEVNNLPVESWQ
# T2: AP2B1_adaptin__P63010_700_937
# T2 chain: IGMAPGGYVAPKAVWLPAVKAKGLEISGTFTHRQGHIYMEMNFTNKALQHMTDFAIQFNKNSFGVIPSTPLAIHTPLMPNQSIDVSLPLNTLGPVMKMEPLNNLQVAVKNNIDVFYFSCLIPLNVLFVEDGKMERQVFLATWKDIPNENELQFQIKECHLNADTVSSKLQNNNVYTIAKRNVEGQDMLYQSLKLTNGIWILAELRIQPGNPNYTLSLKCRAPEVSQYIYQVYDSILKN
# T3: AHNAK2_PDZ__Q8IVF2_108_193
# T3 chain: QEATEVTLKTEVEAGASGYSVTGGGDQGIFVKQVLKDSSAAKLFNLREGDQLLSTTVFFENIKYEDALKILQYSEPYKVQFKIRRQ
# T4: CLTC_Clathrin-propeller__Q00610_1_364
# T4 chain: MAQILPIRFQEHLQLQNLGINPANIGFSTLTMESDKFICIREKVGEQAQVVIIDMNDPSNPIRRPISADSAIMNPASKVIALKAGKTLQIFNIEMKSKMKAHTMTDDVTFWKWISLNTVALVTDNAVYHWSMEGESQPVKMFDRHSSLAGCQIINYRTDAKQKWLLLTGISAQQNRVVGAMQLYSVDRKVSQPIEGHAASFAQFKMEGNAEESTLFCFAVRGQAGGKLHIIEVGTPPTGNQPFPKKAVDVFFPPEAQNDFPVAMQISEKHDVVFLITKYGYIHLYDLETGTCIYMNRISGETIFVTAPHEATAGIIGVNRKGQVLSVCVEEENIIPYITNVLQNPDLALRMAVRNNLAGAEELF
# How the values were obtained:
# Assay in all cases: mean normalised NGS count of phage-displayed peptide after selection on bait (% of reads); baits are purified protein domains named by gene / domain / UniProt id / residues; peptides come from disordered regions of human proteins; higher = stronger enrichment / binding
# [1] = target: T1, AP1G2_GAE__O75843_665_785
# [2] = target: T2, AP2B1_adaptin__P63010_700_937
# [3] = target: T3, AHNAK2_PDZ__Q8IVF2_108_193
# ABL1_SH3__P00519_60_121 = details: replicate selections in which the peptide was seen: 6
# [4] = target: T4, CLTC_Clathrin-propeller__Q00610_1_364; details: replicate selections in which the peptide was seen: 6
# [5] = target: ALYREF_RRM__Q86V81_78_183
# NCK1_SH3_1_P16333_5_60 = details: replicate selections in which the peptide was seen: 4
# Src_SH3__P12931_87_144 = details: replicate selections in which the peptide was seen: 3
# [6] = replicate selections in which the peptide was seen: 6
# [7] = replicate selections in which the peptide was seen: 4
# [8] = replicate selections in which the peptide was seen: 3
# [9] = replicate selections in which the peptide was seen: 2
# [10] = replicate selections in which the peptide was seen: 5
# Chain of ABL1_SH3__P00519_60_121 (chain, as listed by the source): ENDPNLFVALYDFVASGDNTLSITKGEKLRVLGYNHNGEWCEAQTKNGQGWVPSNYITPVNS
binder,measurement,setting,value
ELQSERSAVAWVWFQN [NOBOX 339-354 wt],mean normalised NGS count,[1]; [6],0.0516
EFADLTQVETFGFWGE [PMS2 94-109 mut P54278.R107W],mean normalised NGS count,[2]; [7],0.0741
IAEQPVSEVETWVIAA [NDUFS6 72-87 mut O75380.R83W],mean normalised NGS count,[3]; [6],27.8
SLPDFALKFLPGYVGG [DHCR7 113-128 mut Q9UBM7.H119L],mean normalised NGS count,[2]; [8],0.0436
NLDWLVSKLDWLEASS [RYR1 542-557 mut P21817.R552W],mean normalised NGS count,[2]; [8],0.203
TGPPMGVPPPPPPAPD [NR5A1 122-137 wt],mean normalised NGS count,ABL1_SH3__P00519_60_121,0.888
TESEAFGSLTEVSLPL [BARD1 267-282 wt],mean normalised NGS count,[1]; [9],0.0182
PPPLPLQPPFGPDFYS [MARVELD2 48-63 wt],mean normalised NGS count,ABL1_SH3__P00519_60_121,16.2
LLSDDSNFGQFELTTF [MSH2 279-294 wt],mean normalised NGS count,[1]; [6],4.34
LASWQQWVADGPGILN [EVC2 1044-1059 wt],mean normalised NGS count,[1]; [10],0.00884
GTSPSGLNMGELIAWM [CAPN3 275-290 mut P20807.R289W],mean normalised NGS count,[1]; [6],3.68
same,mean normalised NGS count,[4],5.79
IAEQPVSEVETRVIAA [NDUFS6 72-87 wt],mean normalised NGS count,[3]; [8],0.0334
ELQTERSAVAWVWFQN [NOBOX 339-354 mut O60393.S342T],mean normalised NGS count,[1]; [6],1.92
EAAQQQQALASWQQWV [EVC2 1036-1051 wt],mean normalised NGS count,[1]; [6],0.212
PAHPPPSAAAPAPAPS [CHCHD10 24-39 wt],mean normalised NGS count,ABL1_SH3__P00519_60_121,0.861
DATSSVTFLPFMSWLP [SLC52A3 119-134 mut Q9NQ40.R132W],mean normalised NGS count,[1]; [6],10.7
PLPSKSVDWTHFGGSP [TSC1 668-683 wt],mean normalised NGS count,[1]; [6],0.061
LLSDDSNFGQFQLTTF [MSH2 279-294 mut P43246.E290Q],mean normalised NGS count,[1]; [6],0.25
PPDFAAPKAQYQAPVM [IKBKG 392-407 mut Q9Y6K9.D406V],mean normalised NGS count,ABL1_SH3__P00519_60_121,2.19
DLTQVETFGFRGEALS [PMS2 97-112 wt],mean normalised NGS count,[2]; [7],0.0321
EKPNWPDTSFIWFLNP [OTOF 1935-1950 mut Q9HC10.R1939W],mean normalised NGS count,[2]; [9],0.0578
PVSEVETWVIAADGGG [NDUFS6 76-91 mut O75380.R83W],mean normalised NGS count,[3]; [10],32.4
PVAPAPAAPTPAAPAP [TP53 72-87 wt],mean normalised NGS count,ABL1_SH3__P00519_60_121,3.82
DLYSRLGKQPPPGIVA [WNK4 1162-1177 wt],mean normalised NGS count,[5]; [6],14
EIPPPLPVWTPESFIV [PTPN22 612-627 mut Q9Y2R2.R620W],mean normalised NGS count,ABL1_SH3__P00519_60_121,1.54
same,mean normalised NGS count,NCK1_SH3_1_P16333_5_60,0.0841
same,mean normalised NGS count,Src_SH3__P12931_87_144,0.0276
YAPLSKVPPPPAYPPP [NANOS1 264-279 mut Q8WY41.R276Y],mean normalised NGS count,ABL1_SH3__P00519_60_121,0.335
HSVWINSVGSTASSSQ [KIT 953-968 mut P10721.R956W],mean normalised NGS count,[3]; [9],0.177
SSWIIKDDAEVERLTA [SMARCA2 1344-1359 mut P51532.P1344S],mean normalised NGS count,[3]; [9],0.232
EQLPMDLRDRFTEMRE [ING3 12-27 wt],mean normalised NGS count,[5]; [7],1.22
